The values that follow come from the RNAGym collection of RNA variant scans (doi:10.7554/elife.90254).

The source gives no read counts; variants with many changes may rest on few reads.

B1: LINE1-mini (parent)
chain: GGCAGAGCUCAACACAGCGUGGCAAAGUGGCUGUGGCUAGACUGCC

In this data set the parent is B1. The data set can be described thus: self-cleavage, relative activity (ratio to wild type); higher = more cleavage; in vitro, sequencing; the parent is a self-cleaving ribozyme.
For G2C C13U C37U G44C, the self-cleavage is 0.37. Next, G2C C10G A12U C45U: 0.01.

For the variant G2C C15U G30U U34C, the self-cleavage came to 0.15. For G2C G22C U32G A41U, the self-cleavage turned out to be 0.1. Under G2C C10U C18A G29A G35C stands 0.03; under G2C C13A G29U, 0.07; under G2C G22C C37A G44C, 0.02. Under G2C C13A U34G stands 0.08; under G2C C13U U28C C37U, 0.01; under G2C U9A C23U A39G, 0.11.

For the variant G2C G5A C10U A24G U34G, the self-cleavage was 0.02.

In the case of G2C G7U C8A G30U, the self-cleavage is 0.06. Next, G2C G5U C10A C23U G33U: 0.03; G2C G17A A41G U43C: 0.03. Under G2C G22C G29U G33U stands 0.21; under G2C C10A G22A G33A, 0.01. Under G2C C8U C23U G27C C46U stands 0.68; under G2C C13U A14U G27C U38G G44A C45G, 0.01. Consider G2C G19C A39C U43A, for which the self-cleavage was 0.

In the case of G2C G5C A14G G19U, the self-cleavage turned out to be 0.03. Next, G2C U9C C13G U43A C45A: 0.01; G2C U9C C10G A12U C18U G44U: 0.01; G2C C8U C37A: 0.11. Under G2C G7A G22U C45G stands 0.16; under G2C G21U G44U, 0.17. G2C C31G C46U: the self-cleavage is 0.04.

Regarding G2C G17A G19A U20C G27C C31G, the self-cleavage was determined as 0.01. As to G2C C10U G35C G40U A41C U43G, the self-cleavage turned out to be 0.02. Under G2C G19U G27A U38A G40U stands 0.17.

Regarding G2C C10A U32G, the self-cleavage turned out to be 0.01. G2C G35A C46G: the self-cleavage worked out at 0.15.

Turning to G2C G30A U32C, the self-cleavage turned out to be 0.06. On to G2C C23G G35C U38C, for which the self-cleavage is 0.06. On to G2C C23G A39C, for which the self-cleavage turned out to be 0.11.

For the variant G2C C10A C13A, the self-cleavage was found to be 0.01.

As for G2C G27A U34C, the self-cleavage worked out at 0.12. Under G2C G5A C8U C46G stands 0.24; under G2C U28C G29C, 0.03; under G2C G27U C31G, 0.11. Under G2C U9C G29A stands 0; under G2C G30C C42U, 0.15.

Regarding G2C G27U U34A G35A G36C, the self-cleavage was determined as 0.01. In the case of G2C G19A A24G A25G, the self-cleavage was determined as 0.13.

Consider G2C G21C U28G G30C G35U, for which the self-cleavage stood at 0.02. As for G2C G17U G27C G33C U34A, the self-cleavage worked out at 0.02. Under G2C G5A A16C stands 0.28; under G2C G7C G40U, 0.07. As to G2C C13A A25G, the self-cleavage was 0.02. As for G2C G5A C10U C18U, the self-cleavage came out at 0.07.

For the variant G2C C15U G17A G27U U28C, the self-cleavage stood at 0.15. Under G2C G29A G33A C42G stands 0.03; under G2C C10G A14U A25U, 0.01. Under G2C C10U A11G stands 0.02; under G2C C3U G5U C13G A25U C37U, 0.06; under G2C G35C U43G, 0.09. Next, G2C G7A C10U G27U U38C C45A: 0.18; G2C G7A A11U G44C: 0.01. In the case of G2C G22C A24G G29U, the self-cleavage worked out at 0.09. Under G2C G5A A14U A25G U38G stands 0.09; under G2C C10G A12C A41U C42A, 0.01.

Turning to G2C C13A U38A, the self-cleavage came out at 0.05. Next, G2C G27U G33U U34A: 0.04; G2C C13A C23A U28G G29U G30A: 0.12. Next, G2C G19U C31A U34A A39U: 0.01. Under G2C C10A G22A stands 0.46; under G2C C10A G22U, 0.04.

Regarding G2C G17A G19U, the self-cleavage came out at 0.04. Next, G2C C8A G36C C37A A39U G40C: 0.17; G2C G17A A25G A26U U34C: 0.01; G2C G17A U34A: 0.01. With G2C U20G C45U, the self-cleavage amounted to 0.26. Next, G2C C31G C37U: 0.07; G2C G5A C18G: 0.04. Under G2C C8G U32G C45G stands 0.04.

As to G2C G27C U28C G44U, the self-cleavage is 0.2.

Turning to G2C C23U G30A U38A C46A, the self-cleavage came to 0.19.

As for G2C C10U U34G, the self-cleavage was 0.05.

Turning to G2C G17A G30A, the self-cleavage worked out at 0.1. Under G2C G7A C15A U34C stands 0.03; under G2C G5C G17C A26C G27U, 0.03. On to G2C G5A G19C G21U G40C, for which the self-cleavage came out at 0.01. Next, G2C U9C G19A U20A G22C C46G: 0.01; G2C G19A C23A G35U G36U: 0.91; G2C C18A C31A: 0.01. Under G2C G21A A24G U32C U34A stands 0.04; under G2C C10G C13U G36U C45A, 0. Under G2C C8A G21A U28G stands 0.22; under G2C C18U U32C G33C G44A, 0.

G2C G19A C23A G27C G30U: the self-cleavage was determined as 0.12.

Take G2C G35C U38C G40U: the self-cleavage stood at 0.09. Under G2C G36A U38A stands 0.1. In the case of G2C C10A A16G G36U, the self-cleavage was determined as 0. Regarding G2C G7U C37U, the self-cleavage stood at 0.09. G2C G5U A12U C13A C18A G33U C37U G40U C45G: the self-cleavage stood at 0.01. Under G2C G17U G33U C45G stands 0.01; under G2C G5A C10G G21A C42A, 0.02. Next, G2C C10G C15U U43A: 0.01.

With G2C U20C G21A U32A, the self-cleavage came out at 0.03. On to G2C U20A G22A A24U, for which the self-cleavage came to 0.1. Regarding G2C C8U C18G G36U U43A, the self-cleavage turned out to be 0.06.

For G2C G27U U32C G35A, the self-cleavage stood at 0.04. Next, G2C G36C U38C C46G: 0.07; G2C C15A G22C A25U G27U C45G: 0.09; G2C G7C A12G G17U: 0.03. Under G2C C13A G30A C31U U32A stands 0.35; under G2C G35C G44C, 0.02. Next, G2C U9G U34G C45A: 0.09; G2C C10G A12C U38A A41U: 0. As to G2C G21U U34C, the self-cleavage is 0.09. Take G2C G7A A25G: the self-cleavage stood at 0.1. Under G2C U9A C10G C23A C46A stands 0.03; under G2C G7U G44A, 0.29. Under G2C C8A C10A U28G U32A stands 0; under G2C G7A C8U U32A, 0.09; under G2C C18A C23A U38A, 0.15. As for G2C G17U C42A C46G, the self-cleavage was 0.02. Consider G2C U9C C15A G36C C46A, for which the self-cleavage is 0.01. Under G2C G17U G19A U32G stands 0.09.

With G2C C18U C42U, the self-cleavage stood at 0.04.

Take G2C G5U G17C G22U C45G: the self-cleavage was determined as 0.01. Under G2C C13A A14C U28C G29A U43A stands 0.02. Under G2C C8U C13A G17U stands 0.3; under G2C G19U A41U, 0.01. G2C G36U G40C: the self-cleavage was determined as 0.05. Next, G2C C8A G30A: 0.97; G2C U9C G30C C31U C42U: 0.08; G2C G30U C31U: 0.06.

Turning to G2C G19A G30C C42U, the self-cleavage is 0.01. Take G2C G36C G40U C42G: the self-cleavage amounted to 0.01. Next, G2C G19C C45G: 0.12; G2C G36U G44U: 0.07; G2C C15U A25U G29A C37A: 0.02. Under G2C C15A C37G stands 0.04; under G2C U9C C18A, 0.01.

As for G2C C3U G5U C8A G30C U32C, the self-cleavage amounted to 0.27.

Turning to G2C C8A C18A G22C C45U, the self-cleavage was 0.06. Turning to G2C C10G A24C A26U G27C, the self-cleavage is 0.01. Regarding G2C C18A G19C, the self-cleavage was 0.06. Under G2C C15A A25C G35C stands 0.16; under G2C G7A A11U C15A A16U G19C G36C G40A, 0.02; under G2C C8A U20A, 0.1.

Regarding G2C C18U G35C, the self-cleavage stood at 0.03. Under G2C C18U G35U stands 0.12; under G2C C10U G29C, 0.03; under G2C U9C A11U C18A A41C, 0.01. G2C G17U U28C U34G G44A: the self-cleavage was 0.01. With G2C C13G U32A G33A U34C, the self-cleavage came to 0.03. Next, G2C C31U U34C: 0.05. Under G2C G29U U34G C37A C42U stands 0.04; under G2C C10A C46A, 0; under G2C C13G C15U A16G, 0.01. Next, G2C C18G G21C G27U G33U U38G: 0.12; G2C C8U C37A C45U: 0.05.

Consider G2C C10A G19U, for which the self-cleavage was 0.01.

For G2C G21C G44C, the self-cleavage amounted to 0.16.

On to G2C C31U U32C, for which the self-cleavage was found to be 0.23.

G2C G5A C23A: the self-cleavage stood at 0.05.

Regarding G2C C3U C37A, the self-cleavage turned out to be 0.03. Under G2C C10U C46G stands 0.07.

On to G2C G7U U9G A11C C13U G17C C46G, for which the self-cleavage turned out to be 0.01. Under G2C C15A U20A C23G C31U G44C stands 0; under G2C U9A C10A A24U C31A U38C, 0.01. On to G2C C18G U28A G30C C37A C45A, for which the self-cleavage was found to be 0.27.

For the variant G2C G19U C37A, the self-cleavage is 0.02. Under G2C G29C A41G C46U stands 0.12; under G2C U9C G22A A39U, 0.05; under G2C G33A G35C G44A, 0.05.
